Experimental data as given in the supplement of paper PMC9446081.
Hit rate of the full screen: of about 39,000 compounds, about 220 (0.56%) showed activity. The list shows a part of the results.

Each molecule was assayed on Escherichia coli K-12 BW25113 (assay: relative growth (OD600 normalised to plate interquartile mean) (fraction); higher = less growth inhibition, active = 0.2 or less). Details: 50 µM; LB; incubation time: overnight (16-24 h).
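Note: static incubation at 37 °C against the wild-type strain, values averaged over two biological replicates.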

| SMILES | relative growth |
| --- | --- |
| C[C@@H]1CCCCO[C@H](CN(C)Cc2ccc(C(F)(F)F)cc2)[C@H](C)CN([C@H](C)CO)C(=O)c2cc(NC(=O)CCCN(C)C)ccc2O1 | inactive: 0.981 |
| CN1C(=O)c2cc(NC(=O)c3cccs3)ccc2OC[C@@H]2O[C@H](CC(=O)NCCN3CCCCC3)CC[C@H]21 | inactive: 1.02 |
| C[C@H]1CN([C@@H](C)CO)S(=O)(=O)c2ccc(-c3cccc(C(=O)N(C)C)c3)cc2O[C@@H]1CN(C)C(=O)Cc1ccccn1 | inactive: 1.01 |
| C[C@H](CO)N1C[C@H](C)[C@H](CN(C)C(=O)Nc2ccc3c(c2)OCO3)Oc2ccc(NS(=O)(=O)c3cn(C)cn3)cc2CC1=O | inactive: 0.977 |
| CCNC(=O)C[C@H]1CC[C@@H]2[C@H](COC[C@H](O)CN2C(=O)Nc2c(C)noc2C)O1 | inactive: 0.84 |
| Cc1noc(C)c1S(=O)(=O)Nc1ccc2c(c1)C(=O)N([C@H](C)CO)C[C@@H](C)[C@@H](CN(C)CC1CCCCC1)OCCCC[C@@H](C)O2 | inactive: 1.01 |
| C[C@@H]1CN([C@H](C)CO)C(=O)c2cc(C#Cc3ccc(F)cc3)cnc2O[C@@H]1CN(C)Cc1ccccn1 | inactive: 0.999 |
| C[C@@H]1CCCCO[C@@H](CN(C)C(=O)c2ccccc2)[C@@H](C)CN([C@@H](C)CO)C(=O)c2cc(NS(=O)(=O)c3ccc(Cl)cc3)ccc2O1 | inactive: 1 |
| C[C@@H](NCCC(c1ccccc1)c1ccccc1)c1ccccc1 | inactive: 0.976 |
| COc1ccc(CN(C)C[C@H]2OCCCC[C@@H](C)Oc3ccc(NC(=O)c4ccncc4)cc3C(=O)N([C@@H](C)CO)C[C@@H]2C)cc1 | inactive: 0.976 |
| C[C@@H]1CCCCO[C@@H](CN(C)CC2CC2)[C@@H](C)CN([C@H](C)CO)C(=O)c2cc(NS(=O)(=O)c3cn(C)cn3)ccc2O1 | inactive: 0.975 |
| COc1ccc([C@H]([C@@H](O)Cc2ccccc2)N(CC#C[C@@H](O[Si](c2ccccc2)(c2ccccc2)C(C)(C)C)c2ccccc2)[C@@H](Cc2ccccc2)C(OC)OC)cc1 | inactive: 1.06 |
| CCOC(=O)/C(C)=N\O | inactive: 0.975 |
| COCC#Cc1ccc2c(c1)O[C@@H](CN(C)S(C)(=O)=O)[C@@H](C)CN([C@@H](C)CO)S2(=O)=O | inactive: 1.03 |
| C[C@H](CO)N1C[C@H](C)[C@@H](CN(C)Cc2ccc(C(F)(F)F)cc2)Oc2c(NC(=O)Nc3ccc(C(F)(F)F)cc3)cccc2C1=O | inactive: 0.928 |
| C[C@H](CO)N1C[C@H](C)[C@H](CN(C)S(C)(=O)=O)OCCCC[C@H](C)Oc2ccc(NS(=O)(=O)c3cccs3)cc2C1=O | inactive: 1.01 |
| c1ccc(-c2[nH]nc3ccccc23)cc1 | inactive: 0.931 |
| Cc1ccc(-c2cnc3c(c2)C(=O)N([C@H](C)CO)C[C@@H](C)[C@@H](CN(C)C(=O)Cc2cccnc2)O3)cc1 | inactive: 0.994 |
| CNC[C@@H]1Oc2ccc(NS(=O)(=O)c3cn(C)cn3)cc2CC(=O)N([C@H](C)CO)C[C@H]1C | inactive: 0.975 |

| SMILES | relative growth |
| --- | --- |
| CNC(=O)C(=O)NC[C@H](c1ccc2c(c1)OCO2)N1CCOCC1 | inactive: 1.01 |
| C[C@@H]1CCCCO[C@@H](CN(C)Cc2ccccc2)[C@H](C)CN([C@@H](C)CO)C(=O)c2cc(NC(=O)c3ccncc3)ccc2O1 | inactive: 0.989 |
| C[C@@H]1CCCCO[C@@H](CN(C)C(=O)c2ccccc2)[C@H](C)CN([C@@H](C)CO)C(=O)c2cc(NC(=O)Nc3ccc(F)cc3)ccc2O1 | inactive: 0.994 |
| C/C=C/c1cccc(-c2nc(C(=O)NCc3ccc(OC)cc3)cc3c2[C@@H](CCO)N([S@@](=O)C(C)(C)C)C3)c1 | inactive: 1.04 |
| COc1cccc(S(=O)(=O)N(C)C[C@@H]2Oc3cc(C#CCC(C)C)ccc3S(=O)(=O)N([C@H](C)CO)C[C@@H]2C)c1 | inactive: 1.01 |
| COc1cccc(S(=O)(=O)Nc2ccc3c(c2)OC[C@H](C)N(C(=O)Cc2cccnc2)C[C@H](C)[C@H](OC)CN(C)C3=O)c1 | inactive: 0.963 |
| COc1ccc([Si](C)(C)[C@@H]2[C@@H](CCO)O[C@]3(C(=O)N(Cc4cccc(N5C(=O)c6cccc7cccc5c67)c4)c4ccccc43)[C@H]2C)cc1 | inactive: 0.908 |
| COc1ccc(NC(=O)Nc2cccc3c2O[C@@H](CN(C)Cc2ccc(Cl)c(Cl)c2)[C@@H](C)CN([C@@H](C)CO)C3=O)cc1 | inactive: 0.994 |
| C[C@@H]1CN([C@@H](C)CO)C(=O)c2cc(NS(=O)(=O)c3ccc(F)cc3)ccc2O[C@@H](C)CCCCO[C@@H]1CN(C)CC1CCCCC1 | inactive: 0.981 |
| CCO[C@H]1CN(CC)C[C@@H]1N | inactive: 0.984 |
| C[C@H](CO)N1C[C@H](C)[C@@H](CN(C)Cc2ccc(C(F)(F)F)cc2)OCc2ccccc2-c2c(n(C)c3ccccc23)C1=O | inactive: 1.03 |
| C[C@H](CO)N1C[C@H](C)[C@@H](CN(C)C(=O)Nc2cccc3ccccc23)Oc2c(NS(=O)(=O)c3cccs3)cccc2C1=O | inactive: 0.994 |
| C[C@H](CO)N1C[C@H](C)[C@H](CN(C)S(C)(=O)=O)Oc2cc(-c3ccc(F)cc3)ccc2S1(=O)=O | inactive: 1.02 |
| O=C(C[C@H]1CC[C@@H]2[C@H](COC[C@H](O)CN2S(=O)(=O)c2ccccc2)O1)N[C@@H]1CCN(Cc2ccccc2)C1 | inactive: 0.991 |
| Cc1noc(C)c1NC(=O)Nc1ccc2c(c1)CC(=O)N([C@H](C)CO)C[C@H](C)[C@H](CN(C)Cc1ccc(-c3ccccc3)cc1)O2 | inactive: 1.02 |
| C[C@@H]1CN([C@H](C)CO)C(=O)c2cc(NS(=O)(=O)c3cn(C)cn3)ccc2O[C@@H]1CN(C)CC1CC1 | inactive: 0.994 |
| C[C@@H]1CN([C@@H](C)CO)C(=O)Cc2cc(NC(=O)c3ccncc3)ccc2O[C@H]1CN(C)Cc1ccc(Oc2ccccc2)cc1 | inactive: 0.994 |
| C[C@@H]1CCCCO[C@H](CN(C)C(=O)Cc2ccccc2)[C@H](C)CN([C@H](C)CO)C(=O)c2cc(NC(=O)CCC(F)(F)F)ccc2O1 | inactive: 0.986 |
